Whole data set: some 33,000 sequences, median “E-score (-0.5 to 0.5)” near -0.013, cut for the highest 2% near 0.3. The list shows a part of the results.
The sequences below were run against T1, Msn1 (UniProt P22148) (assay: PBM E-score (8-mer binding enrichment) (E-score (-0.5 to 0.5)); higher = stronger / more preferred TF binding; most listed sequences are background and not binding sites). Conditions: protein concentration: 200 nM; construct: GST-full length.
T1 sequence: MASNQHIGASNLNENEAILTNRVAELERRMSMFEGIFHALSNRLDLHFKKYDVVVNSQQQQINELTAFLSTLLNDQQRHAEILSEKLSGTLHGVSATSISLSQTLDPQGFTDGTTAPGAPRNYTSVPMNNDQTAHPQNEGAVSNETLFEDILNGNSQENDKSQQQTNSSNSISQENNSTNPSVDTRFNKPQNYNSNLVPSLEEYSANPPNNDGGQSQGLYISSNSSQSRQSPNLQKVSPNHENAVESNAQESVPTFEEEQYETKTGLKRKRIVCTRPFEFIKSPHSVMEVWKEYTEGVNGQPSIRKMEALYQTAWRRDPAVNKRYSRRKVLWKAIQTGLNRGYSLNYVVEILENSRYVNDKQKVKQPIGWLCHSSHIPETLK
How it was run: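 Universal all-10-mer Agilent arrays, double-stranded by primer extension on fresh or once-stripped slides, were probed with about 100-200 nM GST-tagged yeast transcription factors made by PURExpress. Fluorescent anti-GST detected bound protein, and masliner normalised the scans. E-scores from the Universal PBM Analysis Suite were given to each ungapped eight-base word pooled with its reverse complement.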

Row | Sequence | PBM E-score
1 | CATAACCA | -0.0131
2 | GTGAGTCA | -0.00724
3 | ATTAGTGA | 0.0344
4 | GCGTGGAA | -0.217
5 | GTACAAAC | 0.421
6 | TATGGTAA | 0.0198
7 | GGCATGTA | 0.128
8 | ATAATTAG | 0.14
9 | ACCATGTG | -0.128
10 | AAAGCGTC | -0.0789
11 | TCCCATCA | -0.124
12 | ACTCTACC | -0.0418
13 | TGGAAGAA | 0.0848
14 | ATCATGCC | -0.0337
15 | GGTGGTAA | -0.00209
16 | AACCCAGG | -0.0759
17 | ATTGCGAA | -0.0849
18 | AGTCGGTA | -0.0985
19 | GTCAAGTA | 0.0507
20 | CGAAAGTC | 0.196
21 | CACTGCGC | -0.0604
22 | AAAGAGTG | -0.0168
23 | GTCCACTA | 0.15
24 | AGTAAAAG | 0.142
25 | GAGACTCC | -0.0748

Row | Sequence | PBM E-score
26 | CAAAAGTG | 0.14
27 | CGCTGTCC | 0.102
28 | AGGAGAGA | -0.0434
29 | ATTCAGTC | 0.0214
30 | AAAATAGA | 0.162
31 | AAATCACA | -0.0165
32 | AGCGGCCA | -0.215
33 | CGATCCCC | -0.193
34 | CCCGTGCC | -0.226
35 | GATGCTAC | -0.117
36 | ATGATGGC | -0.162
37 | AGCTACAA | -0.0544
38 | ACGAGAGA | -0.0508
39 | CAGGTTAA | 0.0612
40 | AAACTCTA | 0.00298
41 | CTATGAGA | -0.0425
42 | AAAATCTA | 0.0219
43 | AGTGCTGC | -0.164
44 | CAGTTATC | -0.222
45 | AACCCATA | 0.112
46 | ACCGTCGG | -0.251
47 | ATCGCCGG | 0.0491
48 | ACCCCTCG | -0.237
49 | GCTCCACC | -0.133
50 | AGTGACTG | -0.07

Row | Sequence | PBM E-score
51 | AGCTCAAC | 0.03
52 | GTTTTTAA | 0.1
53 | ATAGAATC | 0.0514
54 | AATTACGG | 0.0374
55 | ACATGATG | 0.133
56 | AACTCGGT | 0.0633
57 | AATGAAAT | 0.258
58 | AAAAAGAA | 0.036
59 | GCTCTACC | -0.249
60 | AACATTGT | 0.145
61 | AGTATCCC | -0.0802
62 | TCTCTGAA | -0.0233
63 | CATCGCAC | -0.212
64 | TCAGGACA | 0.461
65 | CGCGTCTC | 0.0892
66 | GACCGTTA | 0.0323
67 | TATACAGA | 0.173
68 | CGCATACA | 0.0313
69 | GCGGTAGA | -0.167
70 | ACTCTTAT | 0.13
71 | ACCTAAAA | 0.0426
72 | GGCGTTCA | -0.179
73 | ACCCACTG | -0.0189
74 | CAGTACCC | -0.239
75 | ACGAATAG | 0.021

Row | Sequence | PBM E-score
76 | CTCCTAGC | -0.27
77 | CCAGTAGG | -0.213
78 | TATTACCA | 0.0056
79 | ACTCTCCG | -0.11
80 | CGTGACGA | 0.00091
81 | TCCCGCAA | 0.127
82 | ACACTACA | 0.0311
83 | GGAGTTGA | -0.162
84 | ACGGAGGC | -0.314
85 | GATCACGC | 0.183
86 | AAGCGCAT | 0.0169
87 | CGAGTCGC | -0.25
88 | ACCAATTA | 0.015
89 | GACAACAC | 0.269
90 | TATAGTAA | 0.11
91 | CCCCCCTC | -0.368
92 | TAGTACGA | 0.0888
93 | AGTGTACA | 0.172
94 | AGGGGAGA | -0.182
95 | TTTTAAAA | 0.263
96 | GTGGCTTA | -0.153
97 | CGGTAGGC | -0.057
98 | CTTCCAAC | -0.152
99 | GAGGCTTA | -0.241
100 | CGCAGTCC | -0.139

Row | Sequence | PBM E-score
101 | CGTAGCAA | -0.00263
102 | AAGCTGCT | -0.016
103 | TAGACGGA | 0.122
104 | GCGGGACC | -0.22
105 | GAGCTTTA | -0.0905
106 | CCTCGAGA | -0.065
107 | ACCTCACT | 0.0185
108 | ACACGTAG | 0.091
109 | TCTCGGCA | 0.0465
110 | CCCCTTAA | -0.157
111 | ACACATAA | 0.217
112 | GCACGCAC | -0.213
113 | TCACGCGA | 0.123
114 | AACGGGAG | 0.0589
115 | CAGATGGG | -0.136
116 | ACCATCGT | -0.0409
117 | ACCGAATA | -0.0139
118 | CAAGACGG | -0.0583
119 | GTCCCGGA | 0.29
120 | CACCATGC | -0.218
121 | AGCACAAA | 0.118
122 | GAGTTTTA | 0.179
123 | CCCGACGA | 0.138
124 | CCTAGTAG | 0.0026
125 | ATTGATAA | 0.071

Row | Sequence | PBM E-score
126 | CCTGGTAA | -0.126
127 | CGGCGTTC | -0.103
128 | GCGGAATA | 0.11
129 | GCATGAAC | 0.11
130 | ATAACGTA | 0.0774
131 | ATGCTGTG | 0.0855
132 | CACGAACA | 0.24
133 | CGCCGGGA | -0.0452
134 | GCGCTCCC | -0.231
135 | CATGTATA | 0.141
136 | ATGTTTGA | 0.0858
137 | TCCTGGCA | 0.0904
138 | GCTTAGAC | 0.054
139 | CCAAGGCC | -0.165
140 | ATGAGTGG | -0.261
141 | GCGAATCA | 0.0762
142 | CCCCTGGA | -0.154
143 | CAATAAAG | 0.138
144 | ACGCGCAT | 0.0251
145 | TAAGAGCA | 0.0294
146 | ACGATCGC | 0.0874
147 | AGCGAACA | 0.0751
148 | CTACTGGA | 0.0395
149 | TCCGTGAA | 0.0831
150 | CACTTGAG | -0.0378

Row | Sequence | PBM E-score
151 | GTAAAGGA | 0.0665
152 | ACCCCCTA | -0.383
153 | AGGGACAA | 0.487
154 | AGATATCC | -0.101
155 | AAATGATT | 0.276
156 | ATGTCAGA | 0.265
157 | TCCTTGCA | 0.0515
158 | AGCCCCCA | -0.369
159 | GTTTCGAA | 0.0695
160 | AGGTCTCG | -0.156
161 | GCAGAACA | -0.0343
162 | GTACGAAC | 0.311
163 | GCGAGGCC | -0.208
164 | ACCAACCG | 0.00056
165 | GACCAGAA | 0.0209
166 | GGGCCTTA | -0.168
167 | GCCGGGCC | -0.238
168 | ACGAATAA | 0.197
169 | GTCGGGGA | -0.0863
170 | GACTCTGA | -0.0479
171 | TGGATGAA | -0.087
172 | ACTTACGC | 0.0338
